Reference: ChEMBL document CHEMBL1201862, “PubChem BioAssay data set” (2004)
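Grown in 96-well plates, cells were treated for 48 hours with each compound at five concentrations. Insufficient inhibition: endpoint recorded as highest concentration tested. GI50: concentration for 50% inhibition of growth.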 Active and inactive are the calls of the source. Rule as the data show it: active = GI50 up to about 1.1 µM and inactive = higher. Square brackets hold non-standard residues; d marks the D form. Peptide text beside a SMILES is read from it. * marks the point of attachment. Phe(4-Cl) = N[CH](Cc1ccc(Cl)cc1)C(=O)O; 2Nal = N[CH](Cc1ccc2ccccc2c1)C(=O)O; 3Pal = N[CH](Cc1cccnc1)C(=O)O; AllylGly = C=CC[CH](N)C(=O)O; Boc = CC(C)(C)OC(=O)*; OtBu = CC(C)(C)O*

Tested on: NCI-H322M
Test: NCI anticancer screen, dose series, 48 h

How did the GI50 turn out when `NC(=O)c1ccc(Cl)c([N+](=O)[O-])c1` was run?
Its GI50 is inactive: > 100 µM.

How did the GI50 turn out when `CCOc1ccc(/N=C/C=C(\Cl)c2ccc3ccccc3c2)cc1` was run?
Its GI50 is inactive: 16.3 µM.

With `C=C(C)[C@]12CC(C)C34OC(/C=C\C=C\CCCCCCCCC)(O[C@@H]1[C@@H]3[C@@H]1O[C@]1(CO)[C@@H](O)[C@]1(O)C(=O)C(C)=C[C@@H]41)O2` (some centres not stated) as the molecule, how does the GI50 read?
Its GI50 is active: 0.124 µM.

With `CC(=O)NC(Cc1ccc2ccccc2c1)C(=O)NC(Cc1ccc(Cl)cc1)C(=O)NC(Cc1cccnc1)C(=O)NC(CO)C(=O)NC(Cc1ccc(O)cc1)C(=O)NC(CCCN=C(N)N)C(=O)NC(CC(C)C)C(=O)NC(CCCN=C(N)N)C(=O)N1CCCC1C(=O)NC(C)C(N)=O` (configuration not stated) (Ac-[2Nal][Phe(4-Cl)][3Pal]SYRLRPA-NH2; configuration not given here) as the molecule, how does the GI50 read?
The GI50 was inactive: > 100 µM.

`COc1ccc(/C=C2\CCC/C(=C\c3ccc(O)c(CN4CCCCC4)c3)C2=O)cc1` was tested. Which GI50 did it give?
Its GI50 is inactive: 16.4 µM.

Which GI50 does the source give for `O=c1c2cc([N+](=O)[O-])ccc2[nH]n1Cc1ccccc1Cl` here?
The GI50 was inactive: > 100 µM.

How did the GI50 turn out when `COC1=C(OC)C(=O)C(C/C=C/c2c(Cl)nc3sccn23)=C(C)C1=O` was run?
Its GI50 is inactive: 20.1 µM.

With `CCOC(=O)N[C@H]1CCc2cc(OC)c(OC)c(OC)c2-c2ccc(SC)c(=O)cc21` as the molecule, how does the GI50 read?
The GI50 was active: < 0.01 µM.

For `COc1nc2nccc-2c2occn12`, which GI50 is on record?
Its GI50 is inactive: > 100 µM.

How did the GI50 turn out when `C[N+]1(C)C/C(=C\c2ccc(O)cc2)C(=O)/C(=C/c2ccc(O)cc2)C1` was run?
Its GI50 is inactive: 82.6 µM.

How did the GI50 turn out when `S=c1cc(S)c2c(=S)sc3nc4ccccn4c(=S)c3c2s1` was run?
The GI50 was inactive: > 100 µM.

How did the GI50 turn out when `CN(C)CCCN=C(N)N` was run?
Its GI50 is inactive: > 100 µM.

`CC(=O)O/N=C/c1c2ccccc2cc2ccccc12` was tested. Which GI50 did it give?
Its GI50 is inactive: 40.8 µM.

For `O=c1cc(-c2ccccc2F)[nH]c2ccc(N3CCCC3)cc12`, which GI50 is on record?
The GI50 was active: 0.00139 µM.

With `Cc1ccc(S(=O)(=O)N2CCN3C(=O)c4ccccc4C32c2ccc(F)cc2)cc1` (configuration not stated) as the molecule, how does the GI50 read?
The GI50 was inactive: > 100 µM.

`N#Cc1[nH]c(=O)n(-c2ccccc2)c1N` was tested. Which GI50 did it give?
The GI50 was inactive: > 10 µM.

How did the GI50 turn out when `CCCCCCCOc1ccc(/C=C\c2cc[n+](CCCCCCCC[n+]3ccc(/C=C\c4ccc(OCCCCCCC)cc4)cc3)cc2)cc1` was run?
The GI50 was inactive: 16 µM.

`O=c1c2ccccc2c(=O)n2n1-c1cccc(c1)CSSCc1cccc-2c1` was tested. Which GI50 did it give?
The GI50 was inactive: > 10 µM.

With `N#Cc1c(-c2ccccc2)c(-c2ccccc2)cc2c(=O)c3ccc(Cl)cc3[nH]c12` as the molecule, how does the GI50 read?
The GI50 was inactive: > 100 µM.

For `C/C(=N\NC(C)(C)C)c1sc(-c2nc(C)c(/C(C)=N/NC(C)(C)C)s2)nc1C`, which GI50 is on record?
Its GI50 is inactive: > 100 µM.

For `CC(=O)O[C@H]1CCN2C(=O)C=CC(OCc3ccccc3)C12` (some centres not stated), which GI50 is on record?
The GI50 was inactive: > 100 µM.

For `COc1cccc2c1Cc1cc(-c3ccccc3)[n+](C)n1-2`, which GI50 is on record?
The GI50 was inactive: 24.3 µM.

Which GI50 does the source give for `c1cc(-c2cn[nH]c2)cc(-c2cn[nH]c2)c1` here?
The GI50 was inactive: 49.9 µM.

How did the GI50 turn out when `CN(C)C(=C1c2cc([N+](=O)[O-])ccc2-c2ccc([N+](=O)[O-])cc21)N(C)C` was run?
Its GI50 is inactive: > 100 µM.

How did the GI50 turn out when `[N-]=[N+]=C1CNC(=O)NC1=O` was run?
The GI50 was inactive: > 100 µM.

`CC(CS(=O)(=O)Cc1ccccc1)C(N)=O` (configuration not stated) was tested. Which GI50 did it give?
The GI50 was inactive: > 100 µM.

How did the GI50 turn out when `C1CSCC2(COC2)CS1` was run?
The GI50 was inactive: > 100 µM.

How did the GI50 turn out when `CC(=O)O[C@H]1CC(C)(C)C(=C=C/C(C)=C/C=C/C=C/C=C(C)/C=C2C=C(/C=C/[C@@]34O[C@]3(C)C[C@@H](O)CC4(C)C)C(=O)O/2)[C@](C)(O)C1` was run?
The GI50 was inactive: 19.6 µM.

`CSC1(C)CC2C(CC1N1CCOCC1)C2(C)C` (configuration not stated) was tested. Which GI50 did it give?
Its GI50 is inactive: > 100 µM.

Which GI50 does the source give for `C=CCC(NC(=O)C(CC(=O)OC(C)(C)C)NC(=O)OC(C)(C)C)C(=O)OC` (configuration not stated) (Boc-Asp(OtBu)-[AllylGly]-OMe; configuration not given here) here?
The GI50 was inactive: 97.3 µM.

`O=[N+]([O-])c1ccc2sc(/C=N/c3ccc(O)cc3)cc2c1` was tested. Which GI50 did it give?
The GI50 was inactive: 39.7 µM.

With `COc1c(O)c2c(c3cc(C(=O)N4CCc5c4c(O)c(OC)c4[nH]c(C(=O)N6CC7CC78C6=CC(=O)c6[nH]cc(C)c68)cc54)[nH]c13)CCN2C(N)=O` (configuration not stated) [CC-1065] as the molecule, how does the GI50 read?
Its GI50 is active: 0.00561 µM.

For `CN(C)CCCNC(=O)N/N=C\c1cccc2ccccc12`, which GI50 is on record?
Its GI50 is inactive: > 10 µM.

How did the GI50 turn out when `Oc1ccc(Cl)cc1-c1nc(S)nc(-c2ccccc2)c1Cl` was run?
Its GI50 is inactive: > 100 µM.

How did the GI50 turn out when `COc1cc(S(=O)(=O)Nc2nc(-c3ccc(/N=C/c4cccs4)cc3)cs2)ccc1Cl` was run?
The GI50 was inactive: > 100 µM.

`O=C(c1ccccc1)N1C(=O)N(c2ccccc2)C(=N/c2ccccc2)/C1=N\c1ccccc1` was tested. Which GI50 did it give?
Its GI50 is inactive: > 100 µM.

For `Cc1ccc(S(=O)(=O)N2CCSCCN(S(=O)(=O)c3ccc(C)cc3)CCN(S(=O)(=O)c3ccc(C)cc3)CC2)cc1`, which GI50 is on record?
Its GI50 is inactive: > 100 µM.

For `Nc1n[n+](CC(=O)c2ccccc2)c2sc(-c3ccccc3)nn12`, which GI50 is on record?
Its GI50 is inactive: 7.6 µM.

With `O=C(C(=O)c1ccc(Cc2ccc(C(=O)C(=O)c3ccccc3)cc2)cc1)c1ccccc1` as the molecule, how does the GI50 read?
The GI50 was inactive: > 100 µM.

For `COc1cc(N(C)C)ccc1C=c1c2ccccc2n2c1cc(-c1ccccc1)[n+]2C`, which GI50 is on record?
The GI50 was active: 0.498 µM.

How did the GI50 turn out when `CCCCCCCCCC[C@H](O)[C@H](O)CC[C@@H](O)[C@H]1CC[C@@H]([C@H]2CC[C@H](CCCCCCC[C@@H](O)CC3=C[C@H](C)OC3=O)O2)O1` was run?
The GI50 was inactive: 4.7 µM.

Which GI50 does the source give for `CN(C)c1ccc(/C=C(/C(=O)O)c2csc(-c3nc(/C(=C\c4ccc(N(C)C)cc4)C(=O)O)cs3)n2)cc1` here?
The GI50 was inactive: > 100 µM.
